Measurements: the supplement of paper PMC7826260
Some of the results follow. Cleavage of a single-stranded DNA pool by Rep nickase domains was read by sequencing at 3 µM enzyme and 37 °C for 1 h; the strands have 90 letters, of which the middle is given. A value is the log2 ratio of uncut reads to the pool without enzyme; uncut sequences lie near 0, cut ones below; no hit call is given. Shares of all reads are compared; where an enzyme cuts many sequences, the uncut ones exceed 0.

Legend:
Test in all cases: uncleaved DNA left, log2 of reads against the no-enzyme library (log2 ratio); higher = less cleavage (more negative = more Rep cleavage of the k-mer); sequences stand for … in CTCGTCCG…ACCGGAGA
[1] = test system: T1, Rep nickase domain of Muscovy duck circovirus
T1 sequence (Rep 1-111, printed without the tag): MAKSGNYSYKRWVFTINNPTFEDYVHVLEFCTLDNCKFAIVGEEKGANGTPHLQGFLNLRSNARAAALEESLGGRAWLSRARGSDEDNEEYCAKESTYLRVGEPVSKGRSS
Procedure: (§1)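 A pool of 90-nt single-stranded DNAs with seven random bases just before the constant AC of the nick site (name = the seven bases) was cut by 3 µM recombinant His6-SUMO-tagged Rep nickase domain (300 nM DNA, 50 mM HEPES pH 8.0, 50 mM NaCl, 1 mM MnCl2, 1 h, 37 °C, three replicates). Uncut DNA was amplified and sequenced.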

[2] = test system: T2, Rep nickase domain of banana bunchy top virus
T2 sequence (Rep 1-94, printed without the tag): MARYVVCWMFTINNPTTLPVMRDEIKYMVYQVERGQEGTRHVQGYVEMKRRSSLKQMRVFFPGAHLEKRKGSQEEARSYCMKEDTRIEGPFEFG
Procedure: as §1

[3] = test system: T3, Rep nickase domain of cabbage leaf curl virus
T3 sequence (Rep 1-116, printed without the tag): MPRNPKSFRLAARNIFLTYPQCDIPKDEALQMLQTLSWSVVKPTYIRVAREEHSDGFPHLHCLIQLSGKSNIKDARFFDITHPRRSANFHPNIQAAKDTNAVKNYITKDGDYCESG
Procedure: as §1

[4] = test system: T4, Rep nickase domain of chickpea chlorotic dwarf virus
T4 sequence (Rep 1-124, printed without the tag): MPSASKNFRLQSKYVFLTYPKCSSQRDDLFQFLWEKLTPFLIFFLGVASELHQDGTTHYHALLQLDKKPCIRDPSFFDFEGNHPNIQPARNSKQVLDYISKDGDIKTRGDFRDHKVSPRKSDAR
Procedure: as §1

[5] = test system: T5, Rep nickase domain of faba bean necrotic yellows virus
T5 sequence (Rep 1-98, printed without the tag): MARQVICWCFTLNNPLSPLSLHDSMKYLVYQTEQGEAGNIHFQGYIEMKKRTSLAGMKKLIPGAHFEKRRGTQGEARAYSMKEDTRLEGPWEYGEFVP
Procedure: as §1

[6] = test system: T6, Rep nickase domain of maize striate mosaic virus
T6 sequence (Rep 1-117, printed without the tag): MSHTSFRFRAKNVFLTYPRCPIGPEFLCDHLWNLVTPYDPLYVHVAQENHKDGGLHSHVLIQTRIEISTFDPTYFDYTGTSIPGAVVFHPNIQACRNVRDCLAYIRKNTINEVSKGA
Procedure: as §1

[7] = test system: T7, Rep nickase domain of porcine circovirus 2
T7 sequence (Rep 2-116, printed without the tag): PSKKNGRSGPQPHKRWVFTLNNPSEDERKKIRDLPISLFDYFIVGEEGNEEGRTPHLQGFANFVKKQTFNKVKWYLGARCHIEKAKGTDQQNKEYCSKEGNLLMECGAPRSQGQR
Procedure: as §1

[8] = test system: T8, Rep nickase domain of tomato golden mosaic virus
T8 sequence (Rep 1-124, printed without the tag): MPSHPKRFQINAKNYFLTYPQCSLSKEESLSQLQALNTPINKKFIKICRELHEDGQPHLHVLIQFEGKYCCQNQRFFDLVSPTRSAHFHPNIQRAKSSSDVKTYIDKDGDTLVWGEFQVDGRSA
Procedure: as §1

[9] = test system: T9, Rep nickase domain of tomato yellow leaf curl virus
T9 sequence (Rep 1-136, printed without the tag): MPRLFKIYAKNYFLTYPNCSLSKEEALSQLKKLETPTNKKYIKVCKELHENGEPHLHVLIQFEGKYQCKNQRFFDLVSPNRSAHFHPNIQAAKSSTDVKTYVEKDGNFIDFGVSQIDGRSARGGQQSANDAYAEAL
Procedure: as §1

[10] = test system: T10, Rep nickase domain of wheat dwarf virus
T10 sequence (Rep 1-137, printed without the tag): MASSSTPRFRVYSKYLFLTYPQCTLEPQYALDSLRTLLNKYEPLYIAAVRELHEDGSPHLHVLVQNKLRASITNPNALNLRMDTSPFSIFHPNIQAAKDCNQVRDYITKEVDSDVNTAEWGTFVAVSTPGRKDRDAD
Procedure: as §1

Row | Sequence | uncleaved DNA left (log2) [1] | uncleaved DNA left (log2) [2] | uncleaved DNA left (log2) [3] | uncleaved DNA left (log2) [4] | uncleaved DNA left (log2) [5] | uncleaved DNA left (log2) [6] | uncleaved DNA left (log2) [7] | uncleaved DNA left (log2) [8] | uncleaved DNA left (log2) [9] | uncleaved DNA left (log2) [10]
1 | ATCTGTA | 0.0486 | -0.0256 | -0.0279 | 0.0886 | 0.0109 | 0.464 | -0.113 | 0.103 | -0.0631 | -0.0221
2 | TCAGACG | 0.0935 | 0.0712 | -0.631 | -0.69 | 0.0522 | -1.04 | 0.224 | 0.000939 | 0.0435 | -0.106
3 | AACACCT | -0.0984 | -0.232 | -0.605 | -2.57 | -0.0443 | -0.266 | -1.16 | -0.0111 | -0.12 | -0.0461
4 | ACCTTTT | -2.32 | -0.407 | -0.362 | -2.69 | -0.0607 | -1.01 | -3.38 | -0.112 | 0.0602 | -0.142
5 | GATAGGA | 0.0303 | 0.0215 | 0.266 | 0.53 | 0.0179 | 0.225 | 0.123 | 0.127 | 0.0257 | 0.0904
6 | GATGTCC | -0.136 | -0.0021 | 0.127 | 0.406 | -0.142 | 0.715 | -0.162 | -0.194 | -0.0376 | -0.0402
7 | GCGCGGT | -0.032 | -0.00996 | -0.0945 | 0.154 | -0.089 | 0.197 | 0.0432 | 0.0452 | -0.0344 | -0.0483
8 | AAAGGTT | 0.184 | 0.106 | 0.216 | 1.53 | 0.0635 | 1.81 | 0.149 | 0.164 | -0.015 | 0.13
9 | TTACAAT | 0.116 | -0.0465 | -0.256 | -2.53 | -0.0387 | -0.358 | -0.182 | -0.107 | -0.0479 | -0.0197
10 | GACTAGT | -1.78 | -1.17 | 0.175 | 0.14 | 0.0186 | 0.546 | -2.73 | 0.204 | 0.0194 | 0.1
11 | AAAGGGT | 0.0575 | 0.0727 | 0.288 | 1.73 | 0.117 | 1.96 | 0.232 | 0.216 | 0.00488 | 0.0638
12 | ATCTATC | 0.0995 | -0.0307 | 0.0483 | 0.0344 | -0.0549 | -0.575 | 0.0108 | 0.0474 | 0.0763 | 0.0843
13 | GCGTTGT | -0.0617 | -0.112 | -0.149 | 0.14 | -0.164 | -0.154 | -0.72 | -0.118 | -0.0112 | -0.106
14 | TCACTTC | -0.0511 | -0.107 | -0.0641 | -0.708 | -0.176 | -0.834 | -0.0132 | -0.0746 | -0.164 | -0.189
15 | TAGTACG | -0.0707 | -0.0266 | -0.929 | -0.773 | 0.0146 | -1.13 | -0.509 | 0.0124 | 0.00951 | -0.139
16 | GCACGGA | -0.135 | -0.0199 | 0.016 | 0.446 | -0.0472 | 0.0186 | -0.0353 | -0.109 | -0.0865 | -0.157
17 | GGGTGCC | -0.00469 | -0.0196 | 0.661 | 1.53 | -0.0155 | 1.94 | 0.173 | 0.0191 | 0.01 | 0.0686
18 | GAACTAC | 0.0586 | 0.113 | 0.297 | -0.977 | 0.177 | 1.06 | 0.202 | 0.0997 | 0.11 | 0.153
19 | CCACAGA | 0.00113 | -0.0732 | -0.14 | -0.53 | 0.195 | -1.03 | 0.134 | 0.108 | -0.0777 | 0.0618
20 | GCGTCAG | 0.0336 | 0.157 | -0.0434 | 0.422 | -0.0216 | -0.0461 | 0.136 | 0.104 | 0.114 | 0.0655
21 | GGGTAAG | -0.0182 | 0.164 | 0.721 | 1.7 | 0.0357 | 1.8 | 0.228 | 0.0317 | 0.0216 | 0.0685
22 | TTGAGAC | 0.164 | 0.161 | 0.294 | 0.887 | 0.179 | -0.267 | 0.278 | 0.052 | 0.185 | 0.16
23 | TTGTTCA | 0.0125 | 0.0835 | 0.264 | -0.351 | 0.0824 | 0.173 | -0.117 | -0.00146 | 0.126 | 0.107
24 | CTTGCAT | 0.0694 | -0.0867 | -0.579 | -0.761 | -0.0647 | -1.07 | 0.0335 | -0.0295 | 0.0104 | -0.0373
25 | ATACACT | -0.027 | -0.0923 | -1.01 | -2.97 | -0.056 | -0.889 | -0.318 | -0.126 | -0.0852 | -0.336
26 | TACGCAC | -0.0642 | -0.156 | -0.386 | -0.363 | -0.148 | -0.858 | 0.061 | -0.0716 | -0.0308 | -0.146
27 | CCACAAC | 0.0228 | 0.0818 | -0.0469 | -1.91 | 0.136 | -0.618 | 0.134 | 0.0496 | -0.0654 | -0.034
28 | AGGGACT | 0.00967 | 0.0766 | 0.441 | 1.57 | 0.0384 | 2.08 | 0.226 | 0.0288 | -0.0516 | 0.181
29 | TATTATC | -1.36 | -0.411 | -0.138 | -0.795 | -0.0567 | -0.393 | -1.7 | 0.0318 | 0.132 | 0.0977
30 | GCTCCAG | 0.0175 | -0.0187 | -0.393 | -0.128 | -0.203 | -0.851 | -0.0644 | 0.0151 | 0.0199 | 0.0478
